Laboratory results as given in PubChem BioAssay AID1745853 (National Center for Advancing Translational Sciences (NCATS), 2022).
Values joined by “and” are separate entries in the source; they are usually repeats but may differ in a detail not shown here. Identical values can stand only once. The list shows a part of the results. These are further read-outs of the screen, such as a control signal, another cell line or another target. No call is given for them.

Key:
Experiment in all cases: Primary Screen for Target Class Profiling of Small Molecule Inhibitors of Methyltransferases
[1] = target: Glycine N-methyltransferase (Homo sapiens) (UniProt Q14749); details: purified enzyme, MTase-Glo SAH luminescence; measured here: GNMT inhibition; at 40 µM; stronger effect = lower value
Method in brief: (§1)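 Each enzyme was assayed with SAM and its substrate. SAH formation detected by MTase-Glo luminescence; single-point 40 uM screen[…].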

[2] = target: Guanidinoacetate N-methyltransferase (Homo sapiens) (UniProt Q14353); details: purified enzyme, MTase-Glo SAH luminescence; measured here: GAMT inhibition; at 40 µM; stronger effect = lower value
Method in brief: as §1

[3] = target: Histamine N-methyltransferase (Homo sapiens) (UniProt P50135); details: purified enzyme, MTase-Glo SAH luminescence; measured here: HNMT inhibition; at 40 µM; stronger effect = lower value
Method in brief: as §1

[4] = target: Nicotinamide N-methyltransferase (Homo sapiens) (UniProt P40261); details: purified enzyme, MTase-Glo SAH luminescence; measured here: NNMT inhibition; at 40 µM; stronger effect = lower value
Method in brief: as §1

[5] = target: Phenylethanolamine N-methyltransferase (Homo sapiens) (UniProt P11086); details: purified enzyme, MTase-Glo SAH luminescence; measured here: PNMT inhibition; at 40 µM; stronger effect = lower value
Method in brief: as §1
% is scaled to controls: 0 for no effect and ±100 for the full control effect.

SMILES | activity change, negative = inhibition [1] | activity change, negative = inhibition [2] | activity change, negative = inhibition [3] | activity change, negative = inhibition [4] | activity change, negative = inhibition [5]
Cc1cnc(CCNC(=O)Nc2ccc3c(c2)OCCO3)n1C1CCC1 | -5.19% | -3.26% | -73.2% | -11% | -3.62%
O=C([C@@H]1Cc2nc[nH]c2CN1Cc1ccc(C(F)(F)F)cc1)N1CCOCC1 | -3.44% | -8.16% | -0.677% | -12.5% | -10.9%
CC1(C(=O)NC2CCCCC2)Cn2c(c(-n3cccc3)c3ccccc32)C(=O)N1Cc1cccs1 (stereo not given) | -2.94% | 3.07% | 0.432% | -10.2% | -1.56%
O=C(Nc1ccc2[nH]ncc2c1)C1CCC1 | -4.87% and -2.32% | 2.39% and -9.22% | -0.439% and 4.67% | -2.47% and -13.7% | 8.45% and 0.779%
Cc1cccc(-c2nnn3c2nc(NCc2ccc4c(c2)OCO4)c2ccccc23)c1 | 5.02% | 0.105% | 2.52% | -0.867% | -1.39%
CC(C)CCN1C(=O)c2ccc(-c3ccco3)n2CC1(C)C(=O)NC1CCCCCCC1 (stereo not given) | -10.4% | 0.375% | -6.17% | -10.6% | -6.78%
CCN(CC)CCNC(=O)CCc1nnc2n(Cc3ccc(Cl)cc3)c(=O)c3ccccc3n12 | -5.61% | 4.47% | -50.5% | -2.81% | -1.69%
Cn1cc(CN2CC3(COCC(=O)N(Cc4cccc(OC(F)(F)F)c4)C3)C2)cn1 | -6.29% | -10.4% | -6.02% | -16.4% | 3.67%
CC(C)CNC(=O)c1ccc2c(=O)n(C)c3nn(CC(=O)Nc4ccc(C(C)C)cc4)c(=O)n3c2c1 | 4.08% | 0.177% | 4.52% | -1.99% | 5.86%
CCCN1C(=O)c2c(C(=O)NCc3ccc(C)cc3)ncn2CC1(C)C(=O)NCc1ccc(C)cc1 (stereo not given) | 1.52% | 0% | 7.65% | 4.29% | 5.7%
c1ccc(N2CCN(CCc3nn[nH]n3)CC2)cc1 | -2.29% | -2.82% | -4.53% | -12.5% | -9.26%
Cc1ccc(Cc2nn3c(SCC(=O)Nc4ccc(C)cc4C)nnc3[nH]c2=O)cc1 | -4.92% | 1.8% | -7.49% | -8.96% | -9.65%
N[C@@H](Cc1ccc(F)cc1)C(=O)O | -4.68% | 4.66% | 0.976% | -4.74% | 6.64%
CC(C)=C1CC2[C@](C)(CC[C@@H](OC(=O)C3(C)OC3C)[C@@]2(C)O)CC1=O (stereo not given in full) | 0.207% | 6.69% | 11.5% | -4.23% | 5.38%
Cc1ccccc1Cn1nc2n(C(C)C)c(=O)c3ccc(C(=O)NCC(C)C)cc3n2c1=O | 1.03% | 3.73% | 0.786% | 1.43% | 0.973%
C=C1CC[C@H]2[C@@](C)(CCC(O)[C@@]2(C)CO)[C@@H]1CCC1=CCOC1=O (stereo not given in full) | -3.12% | -5.7% | 1.61% | -16.9% | -4.24%
CC1(C(=O)NCc2ccccc2)Cn2nc(-c3ccccc3)cc2C(=O)N1c1ccc2c(c1)OCCO2 (stereo not given) | -2.05% | 5.12% | -1.5% | -1% | -3.57%
COc1ccccc1N1C(=O)c2cc3ccccc3n2CC1(C)C(=O)NC1CCCCCC1 (stereo not given) | 1.92% | 3.99% | 2.9% | -10% | -4.87%
COc1ccc(Cl)cc1NC(=O)CSc1nnc2n(CC(C)C)c(=O)c3cc(F)ccc3n12 | -1.4% | 4.35% | 4.88% | -2.45% | -1.67%
CC(C)OCCCN1C(=O)c2ccc(-c3ccco3)n2CC1(C)C(=O)NC1CCCCCC1 (stereo not given) | -0.817% | 0% | 5.69% | 0.162% | -0.95%

SMILES | activity change, negative = inhibition [1] | activity change, negative = inhibition [2] | activity change, negative = inhibition [3] | activity change, negative = inhibition [4] | activity change, negative = inhibition [5]
O=C(c1ccccc1F)N1CCC(N2Cc3ccccc3C2=O)CC1 | -3.48% | -6.7% | -1.23% | -11.4% | -3.57%
COC(=O)[C@H](NC(=O)[C@@H]1C[C@H](NC(=O)Nc2ccc(OC)cc2)CN1C(=O)C=C(C)C)C(C)C | -4.64% | -0.272% | -1.61% | -5.5% | -2.94%
C=CCn1c(=O)c2ccc(C(=O)NC(C)C)cc2n2c(=O)n(CC(=O)NC(C)CC)nc12 (stereo not given) | 5.08% | 0.349% | 6.52% | 2.57% | 3.99%
CC1(C(=O)NC2CCCCCC2)Cn2c(cc3occc32)C(=O)N1Cc1cccc(Cl)c1 (stereo not given) | -11.1% | 2.07% | -3.02% | -11.5% | -2.13%
COCCNC(=O)CCc1nnc2n(Cc3ccc(Cl)cc3)c(=O)c3ccccc3n12 | 1.36% | 4.81% | 6.89% | 7.01% | 2.94%
Cc1ccc(NC(=O)c2cc3n(n2)CC(C)(C(=O)NC2CCCCC2)N(C)C3=O)c(C)c1 (stereo not given) | 6.93% | 0% | 8.52% | 7.31% | 4.1%
CCOc1ccc(CNC(=O)c2cc3n(n2)CC(C)(C(=O)NCc2ccc(C)cc2)N(C)C3=O)cc1 (stereo not given) | 4.89% | 0% | 6.14% | 4.3% | 5.14%
O=C1CCCCC(Cc2ccccc2)(C(=O)NCc2ccc(F)cc2)N1 (stereo not given) | 0.075% | 3.25% | 2.72% | -4.37% | -0.501%
CSc1ccc(CN2C(=O)c3cc(-c4ccccc4)nn3CC2(C)C(=O)NCc2ccccc2)cc1 (stereo not given) | 1.53% | 2.31% | 2.07% | -6.25% | -3.67%
CC(C)NCCCn1c(Sc2cc3c(cc2I)OCO3)nc2c(N)ncnc21 | -7.87% | -5.81% | -31.8% | -37.8% | -36.9%
COC(=O)C1C(CC(C)=O)C=CC(O)C12Oc1cc(C)cc(O)c1C2=O (stereo not given) | 1.45% | 2.28% | 1.23% | -15.4% | -0.738%
C[C@@H]1CC[C@]2(C(=O)O)CC[C@]3(C)C(=CCC4[C@@]5(C)C[C@@H](O)[C@H](O)[C@@](C)(CO)C5CC[C@]43C)C2[C@H]1C (stereo not given in full) | 4.75% | 9.27% | 6.07% | -6.14% | 8.03%
CCC(C)/C=C(C)/C=C/c1cc2c(cn1)C(=O)C(C)(OC(C)=O)C(O)=C2Cl (stereo not given) | 0% | -3% | -1.11% | -20.3% | -20.7%
O=C(c1cc(-c2ccc(F)cc2)n[nH]1)N1CC2CC(C1)[C@H]1CCCC(=O)N1C2 (stereo not given in full) | -3.52% | 3.44% | 0.508% | -2.87% | 17.5%
Cc1ccc(-c2nnn3c2nc(NCC2CCCO2)c2ccccc23)cc1 (stereo not given) | -5.22% | 3.26% | -2.22% | 4.26% | -5.55%
Cc1ccc(C)c(C(=O)CSc2nnc3n(C)c(=O)c4ccc(C(=O)NC5CCCC5)cc4n23)c1 | -5.07% | -5.25% | -3.13% | -6.05% | -5.71%
O=C1N(CC2CC2)CCCC12CCN(S(=O)(=O)N1CCOCC1)C2 (stereo not given) | 3.62% | -4.26% | -0.858% | -6.09% | -2.46%
CN(C)CCC(c1ccccc1)c1ccccn1 (stereo not given) | 5.92% and 6.68% | -0.159% and 6.64% | -1.54% and 7.92% | -11.5% and -8.02% | -4.89% and -1.36%
C[C@@H]1C(=O)O[C@H](C)[C@H]1C[C@@H](O)[C@](C)(O)[C@H]1CC[C@@]2(O)C3=CC(=O)[C@@H]4C[C@@H](O)[C@@H](O)C[C@]4(C)C3CC[C@]12C (stereo not given in full) | 4.9% | 1.9% | 9.29% | -7.74% | 2.26%
Cc1cccc(Nc2nc(-c3ccncc3)cs2)c1 | -89.8% | -85.6% | -93.6% | -86.8% | -91.8%

SMILES | activity change, negative = inhibition [1] | activity change, negative = inhibition [2] | activity change, negative = inhibition [3] | activity change, negative = inhibition [4] | activity change, negative = inhibition [5]
CCCNC(=O)N1CCCC2(CCC(=O)N(Cc3cnc(C)cn3)C2)C1 (stereo not given) | -5.66% | -6.12% | -1.82% | -9.12% | -7.67%
Cc1ccc(NS(=O)(=O)c2ccc3c(c2)[C@H]2C=CC[C@H]2[C@@H](c2ccccc2Cl)N3)cc1C | -13.4% | -2.82% | -21.6% | -18% | -18.9%
COc1nc(C)c(C(=O)NC2CC(c3cc(=O)[nH]c(C)n3)C2)s1 (stereo not given) | -3.07% | -6.59% | 2.19% | -1.61% | -1.01%
COCCc1noc(CNC(=O)C2COc3ccccc3C2)n1 (stereo not given) | -3.5% | -5.79% | -1.25% | -11.2% | -5.49%
CC(c1cccs1)N(C)C(=O)c1ccccc1Cl (stereo not given) | -1.57% | -5.75% | -0.058% | -17.9% | -6.6%
O=[N+]([O-])c1cc(Cl)ccc1S(=O)(=O)N1CCN(Cc2ccccc2)CC1 | 8.14% | 2.75% | 11.5% | -12.4% | -6.21%
CC(=O)Nc1c2n(c3ccc(F)cc13)CC(C)(C(=O)NCCC(C)C)N(Cc1ccccc1C)C2=O (stereo not given) | -3.07% | 0% | -2.36% | 3.66% | -4.42%
Cc1cn2nc(C(=O)NC3CCCC3)cc2c(N2CCSCC2)n1 | -4.82% | -1.7% | -4.32% | -2.44% | 2.61%
O=C(Cn1ccc2cc(S(=O)(=O)N3CCCCC3)ccc21)NCc1cccc(F)c1 | -2.66% | 0.198% | -2.38% | -5.38% | -5.67%
CN1CCN(CCCN2C(=O)c3cc4occc4n3CC2(C)C(=O)NC2CCCCCCC2)CC1 (stereo not given) | 3.03% | 3.9% | -1.68% | 3.78% | -1.76%
COCCN1CCCC2(CCN(C(=O)CN3C(=O)CNC3=O)C2)C1=O (stereo not given) | 3.73% | -0.682% | -0.008% | -1.42% | -19.5%
Cc1ccccc1NC(=O)CSc1nnc2n(CC(C)C)c(=O)c3ccc(C(=O)NCC(C)C)cc3n12 | 3.9% | 0% | 7.79% | 6.61% | 2.26%
CSc1ccc(CCNC(=O)c2cc3n(n2)CC(C)(C(=O)NC2CCCCCC2)N(C)C3=O)cc1 (stereo not given) | 3.98% | -3.76% | -1.01% | 0.057% | -11.4%
OC1(CN2CCC(c3nc(-c4ccccc4)no3)CC2)CNCCOC1 (stereo not given) | -1.34% | -10.2% | -2.29% | -4.95% | -0.833%
CC1(C)CC(=O)c2c(C(F)(F)F)nn(-c3ccc(C(N)=O)c(NC4CCC(O)CC4)c3)c2C1 (stereo not given) | -24.5% | -20.1% | 4.5% | -36.9% | -2.52%
CCc1nccc(-c2c(-c3ccccc3)ncn2CC(O)c2ccccc2)n1 (stereo not given) | -2.27% | -8.75% | -1.67% | -8.85% | -6.28%
COCCC1(CO)CCCN(C(=O)CCc2c(C)noc2C)C1 (stereo not given) | -0.593% | -0.562% | -2.62% | -1.61% | -0.13%
Cc1c(O)cccc1C(=O)N[C@@H](CSc1ccccc1)[C@H](O)CN1C[C@H]2CCCC[C@H]2C[C@H]1C(=O)NC(C)(C)C | -11.9% | 4.2% | -3.58% | -17.5% | 6.44%
Cc1ccc(CN2C(=O)c3cc4sccc4n3CC2(C)C(=O)NC2CCCCC2C)cc1 (stereo not given) | -5.12% | 5.99% | -2.78% | 0.591% | -1.7%
Cc1cc2c(cc3n2CC(C)(C(=O)NC2CCCCCC2)N(CCC(C)C)C3=O)o1 (stereo not given) | -0.148% | 0% | 8.8% | -4.64% | 4%
